Measurements from PubChem BioAssay AID1645882 (National Center for Advancing Translational Sciences (NCATS), 2021).
Hit rate of the full screen: of about 16,000 compounds, about 120 (0.75%) were called active. Not shown: some 4% with an inconclusive outcome. The call rests on the fitted dose curve; in most records, active means well fitted inhibition curve with a large enough effect; inconclusive means small, poorly fitted or top-dose-only effect; inactive means no such curve, though single readings can be large or run the other way. The list shows a part of the results.

molecular target: Rap guanine nucleotide exchange factor 3 (Homo sapiens) (UniProt O95398); assay: Validation qHTS for antagonist of cAMP-regulated guanine nucleotide exchange factor 3 (EPAC1); settings: EPAC1 Rap1B-BODIPY-GDP exchange, fluorescence; activity change, negative = inhibition: at the top concentration;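 further: plate controls were DMSO for no effect and ATA control for full effect; nearly all actives have a fitted effect of over 75% in size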
Outline: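 Nucleotide exchange followed as fluorescence loss when BODIPY-GDP leaves Rap1B (480 nm excitation, 540 nm emission), read at 5 min intervals over 30 min. Reaction: 100 nM EPAC1, 250 nM RAP1B-BODIPY-GDP, 50 uM GDP; ATA and DMSO define normalization.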

Sequence of UniProt O95398 (O95398 whole entry, looked up): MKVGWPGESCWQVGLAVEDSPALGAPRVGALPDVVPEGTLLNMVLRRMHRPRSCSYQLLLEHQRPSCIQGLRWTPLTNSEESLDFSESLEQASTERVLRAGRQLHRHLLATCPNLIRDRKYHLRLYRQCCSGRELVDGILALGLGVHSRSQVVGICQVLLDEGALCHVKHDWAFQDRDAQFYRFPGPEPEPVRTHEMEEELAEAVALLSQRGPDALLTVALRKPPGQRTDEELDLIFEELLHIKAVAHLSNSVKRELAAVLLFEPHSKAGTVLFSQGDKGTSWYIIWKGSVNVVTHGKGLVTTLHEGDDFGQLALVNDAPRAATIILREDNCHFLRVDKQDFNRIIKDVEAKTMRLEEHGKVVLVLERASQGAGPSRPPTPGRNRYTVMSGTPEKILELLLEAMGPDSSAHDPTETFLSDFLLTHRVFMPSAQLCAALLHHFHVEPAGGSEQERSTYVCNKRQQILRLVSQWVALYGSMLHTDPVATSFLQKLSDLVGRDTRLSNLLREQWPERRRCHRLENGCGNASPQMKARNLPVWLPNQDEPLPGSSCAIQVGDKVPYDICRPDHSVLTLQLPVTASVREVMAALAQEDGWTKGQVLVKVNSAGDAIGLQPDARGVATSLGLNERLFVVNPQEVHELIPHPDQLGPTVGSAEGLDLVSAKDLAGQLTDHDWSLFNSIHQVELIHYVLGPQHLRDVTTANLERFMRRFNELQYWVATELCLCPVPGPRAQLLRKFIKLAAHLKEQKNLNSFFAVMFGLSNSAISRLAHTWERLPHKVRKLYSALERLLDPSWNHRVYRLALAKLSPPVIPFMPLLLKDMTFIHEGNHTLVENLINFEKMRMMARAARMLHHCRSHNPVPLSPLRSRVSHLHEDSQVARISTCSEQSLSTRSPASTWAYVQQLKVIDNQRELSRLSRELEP

| Compound | activity change, negative = inhibition |
| --- | --- |
| CCC(N)C(O)c1ccc(O)c(O)c1 (centres undefined) | inactive: 15.6% |
| CCCC(=O)OC(C(Cl)(Cl)Cl)P(=O)(OC)OC (centres undefined) | inactive: -11.8% |
| CC(C)CCON=O | inactive: 0.384% |
| C/C=C(\CC)C(=O)NC(N)=O | inactive: 19.7% |
| Oc1ccc2c3c1O[C@H]1c4c(c5ccccc5n4Cc4ccccc4)C[C@]4(O)[C@H](C2)N(CC2CC2)CC[C@@]314 | inactive: -10.3% |
| H-YGGFLRKYPK-OH | inactive: 15.9% [at 15.3 µM] |
| Oc1ccc2c3c1O[C@H]1c4c(c5ccccc5n4Cc4ccccc4)C[C@@]4(O)C(C2)N(CC2CC2)CC[C@]314 | inactive: 17.7% |
| COC1=CC(=O)OC(/C=C/c2ccccc2)C1 (centres undefined) | inactive: 5.3% [at 320 µM] |
| CN(N=O)c1cc(O)ccc1O | inactive: 17.8% [at 75.8 µM] |
| COCC(C)N(C(=O)CCl)c1c(C)csc1C (centres undefined) | inactive: 12.6% |
| Cc1nnc2n1-c1ccc(Cl)cc1C(c1ccccc1Cl)=NC2 | inactive: -3.55% |
| CC(C)=CCN1CC[C@@]2(C)c3cc(O)ccc3C[C@@H]1[C@@H]2C | inactive: 14.6% [at 320 µM] |
| CC(N)Cc1c[nH]c2ccc(O)cc12 (centres undefined) | inactive |
| CC(=O)O[C@H]1C[C@H](O[C@H]2[C@@H](O)C[C@H](O[C@H]3[C@@H](O)C[C@H](O[C@H]4CC[C@@]5(C)[C@H](CC[C@@H]6[C@@H]5C[C@@H](O)[C@]5(C)[C@@H](C7=CC(=O)OC7)CC[C@]65O)C4)O[C@@H]3C)O[C@@H]2C)O[C@H](C)[C@H]1O[C@@H]1O[C@H](CO)[C@@H](O)[C@H](O)[C@H]1O | inactive: 12.2% |
| O=C1CN=C(c2ccccc2)c2cc(Cl)ccc2N1CC1CC1 | inactive: 5.97% |
| N[C@H](CCCCCP(=O)(O)O)C(=O)O | inactive |
| C#C[C@]1(OC(=O)CCCCCC)CC[C@H]2[C@@H]3CCC4=CC(=O)CC[C@@H]4[C@H]3CC[C@@]21C | inactive: -9.31% |
| C[C@H]1CCC[C@H](O)CCCCCc2cc(O)cc(O)c2C(=O)O1 | inactive: -9.66% |
| O=C(CN1CCCCC1)c1ccccc1 | inactive: 13.6% |
| C/C=C1/C[C@@H](C)[C@](O)(CO)C(=O)OCC2=CCN3CC[C@@H](OC1=O)C23 (some centres undefined) | inactive: 11.7% |
| N[C@@H](CCCCP(=O)(O)O)C(=O)O | inactive: -3.17% |
| CCOC(=O)[C@]12Cc3c(cc(OC)c(OC)c3OC)[C@H]1N(Cc1ccccc1)C(=O)c1ccccc12 | inactive: 7.09% |
| COc1ccc2c3c1O[C@H]1[C@H](O)CC[C@H]4[C@@H](C2)N(C)CC[C@@]341 | inactive: 20.9% [at 320 µM] |

| Compound | activity change, negative = inhibition |
| --- | --- |
| O=C1C=C2C(=CCOC2O)O1 (centres undefined) | inactive: 4.96% |
| O=c1oc2ccccc2c(O)c1C(c1ccccc1O)c1c(O)c2ccccc2oc1=O | inactive: 22% |
| c1csc(C2(N3CCCCC3)CCCCC2)c1 | inactive: 12.3% |
| CCOC(=O)[C@]12Cc3cc(OC)ccc3[C@H]1N(Cc1ccccc1)C(=O)c1cc(F)c(F)cc12 | inactive: -17% |
| CC[C@@H]1CN2CC[C@@H]1C[C@H]2[C@H](O)c1ccnc2ccc(OC)cc12 | inactive: 10.5% |
| C[C@]12N[C@H](Cc3ccccc31)c1ccccc12 | inactive |
| O=C(N[C@@H]1N=C(c2ccccc2F)c2cccc3c2N(CC3)C1=O)c1cc2ccccc2[nH]1 | inactive: -0.0787% |
| O=C1CCCN1CC#CCN1CCCC1 | inactive |
| CC(C)(C)c1o[nH]c(=O)c1CC(N)C(=O)O (centres undefined) | inactive: 4.34% [at 75.8 µM] |
| C=CCC1(C(C)CCC)C(=O)N=C(S)NC1=O (centres undefined) | inactive: 16.8% |
| CCN(CC)C(C)C(=O)c1ccccc1 (centres undefined) | inactive: -5.15% |
| COc1ccc2c(c1OC)C(=O)O[C@@H]2C1c2cc3c(cc2CCN1C)OCO3 (some centres undefined) | inactive: 15.9% |
| N#Cc1cccc(NC(=O)N2CC3(CCN(C(=O)Oc4ccccc4)CC3)C2)c1 | inactive: 11.8% |
| CC(C)n1cnc2c(C(=O)N[C@H]3CN4CCC3CC4)cc(Cl)cc21 | inactive: 4.54% |
| C[C@@H](Cc1ccccc1)N(C)C | inactive: 17% |
| CC(=O)N1CC2CC(C1)c1cccc(=O)n1C2 (centres undefined) | inactive: 11.5% |
| CC(C)(O)[C@@H]1[C@H]2OC(=O)[C@@H]1[C@]1(O)C[C@H]3O[C@]34C(=O)O[C@H]2[C@@]14C (tested in a mixture with another compound) | inactive: -2.7% |
| NC(N)=NCCCCCCCCCCN=C(N)N | inactive |
| CC1(C)C(C=C(Cl)Cl)C1C(=O)OC(C#N)c1cccc(Oc2ccccc2)c1 (centres undefined) | inactive |
| O=C(O)[C@@H]1Cc2[nH]cnc2C(c2cccnc2)N1 (some centres undefined) | inactive: 8.89% |
| Oc1cc(Cl)ccc1Oc1ccc(Cl)cc1Cl | inactive: -19.4% |
| NCC(O)c1cccc(O)c1 (centres undefined) | inactive: 2.95% |
| CC[C@@H](O)C(C[C@@H](C)N(C)C)(c1ccccc1)c1ccccc1 | inactive: 29.3% [at 320 µM] |

| Compound | activity change, negative = inhibition |
| --- | --- |
| OC[C@@H]1CCCN2CCCC[C@@H]12 | inactive: 13% |
| COc1cc(CC(C)N)cc(OC)c1OC (centres undefined) | inactive: 14.5% [at 320 µM] |
| COc1ccc2[nH]cc(CCN(C(C)C)C(C)C)c2c1 | inactive: 27.2% [at 320 µM] |
| Cc1ccc(Cl)c(O)c1 | inactive: 25.3% |
| CN1C[C@@H](NS(=O)(=O)N(C)C)C[C@@H]2c3cccc4c3c(cn4C)C[C@H]21 | inactive: 8.33% |
| C[N+](C)(C)CC#CCOC(=O)Nc1cccc(Cl)c1 | inactive |
| C=C1C(=O)O[C@@H]2C[C@@H](C)[C@@H]3C=CC(=O)[C@@]3(C)[C@@H](O)[C@H]12 | inactive: 18.1% [at 320 µM] |
| CC(=O)Oc1ccc(/C=C/c2cc(OC(C)=O)cc(OC(C)=O)c2)cc1 | inactive: 11.9% |
| N#C/C(=C\c1ccc(O)cc1)C(=O)O | inactive: 18.7% |
| C=CCN1CCC23c4c5ccc(O)c4O[C@H]2C(=O)CC[C@@]3(O)C1C5 (some centres undefined) | inactive: -4.29% [at 75.8 µM] |
| CN1[C@@H]2CC[C@H]1CC(O[C@@H](c1ccccc1)c1ccc(Cl)cc1)C2 (some centres undefined) | inactive: 4.56% |
| CC(C)(O)C(Cl)(Cl)Cl | inactive: 11.2% |
| Oc1cccc2cccnc12 | inactive |
| CCCCC(CC)COC(=O)c1ccccc1C(=O)OCC(CC)CCCC (centres undefined) | inactive: 39.3% [at 320 µM] |
| O=C1C[C@@H]2OCC=C3CN4CC[C@]56c7ccccc7N1[C@H]5[C@H]2[C@H]3C[C@H]46 (tested in a mixture with another compound) | inactive |
| CCCCc1ccc(C(=O)O)nc1 | inactive |
| N[C@@H](Cn1ccc(=O)n(Cc2ccc(C(=O)O)cc2)c1=O)C(=O)O | inactive: -8.89% |
| COc1cc(OC)c2c(c1)OC(c1ccc(OC)c(OC)c1)C(O)C2 (centres undefined) | inactive: 8.09% |
| Oc1ccc(Cl)cc1Cc1ccccc1 | inactive |
| CC(C)N1C(=O)c2ccccc2NS1(=O)=O | inactive: 13.9% |
| COc1ccc2c(c1O)-c1c(OC)c(OC)cc3c1[C@@H](C2)N(C)CC3 | inactive: -8.98% |
| CC[C@]1(O)C(=O)OCc2c1cc1n(c2=O)Cc2cc3ccccc3nc2-1 | inactive: 6.98% |
| Oc1ccc2c3c1O[C@H]1c4[nH]c5c(c4C[C@@]4(O)[C@@H](C2)N(CC2CC2)CC[C@]314)C[C@@]1(O)[C@H]2Cc3ccc(O)c4c3[C@@]1(CCN2CC1CC1)[C@H]5O4 | inactive |
